Measured values from US7531646B2, “β-D-ribosidase activity indicators with a chromogenic substrate” (priority 2001, dated 2009).

How the values were obtained:
Serratia spp. = test: Substrate hydrolysis on Columbia agar; parameters: key: +: Positive reaction with the substrate; ++: Strong positive reaction with the substrate; −: No detectable reaction; −*: indicates expected positive reaction as determined using indoxyl glucosides; settings: 300 mg/l, 18 hours
Description: (§1) This was achieved using a densitometer.
(§2) The same method was used as in Example 1.

K. pneumoniae = test: Substrate hydrolysis on Columbia agar; parameters: key: +: Positive reaction with the substrate; ++: Strong positive reaction with the substrate; −: No detectable reaction; −*: indicates expected positive reaction as determined using indoxyl glucosides; settings: 300 mg/l, 18 hours
Description: as §1, §2

E. cloacae = test: Substrate hydrolysis on Columbia agar; parameters: key: +: Positive reaction with the substrate; ++: Strong positive reaction with the substrate; −: No detectable reaction; −*: indicates expected positive reaction as determined using indoxyl glucosides; settings: 300 mg/l, 18 hours
Description: as §1, §2

L. monocytogenes = test: Evaluation of benzophenone glucoside on agar (Table 6); parameters: key: ++: strong growth; Tr: trace growth; settings: ferric ammonium nitrate at 500 mg/l
Description: as §1
(§3) The background agar was beige.

E. faecalis = test: as above; parameters: key: ++: strong growth; Tr: trace growth; settings: ferric ammonium nitrate at 500 mg/l
Description: as §1, §3

Compound | Hydrolysis by Gram negative bacteria (Serratia spp.; Serratia spp. SEX 3) | Hydrolysis by Gram negative bacteria (Serratia spp.; Serratia spp. SEX 4) | Hydrolysis by Gram negative bacteria (K. pneumoniae; K. pneumoniae KPN 2) | Hydrolysis by Gram negative bacteria (K. pneumoniae; K. pneumoniae KPN 3) | Hydrolysis by Gram negative bacteria (K. pneumoniae; K. pneumoniae KPN 4) | Hydrolysis by Gram negative bacteria (K. pneumoniae; K. pneumoniae NCTC 10896) | Hydrolysis by Gram negative bacteria (E. cloacae; E. cloacae ECL 1) | Hydrolysis by Gram negative bacteria (E. cloacae; E. cloacae ECL 2) | Hydrolysis by Gram negative bacteria (E. cloacae; E. cloacae ECL 3) | Hydrolysis by Gram negative bacteria (E. cloacae; E. cloacae ECL 4) | Hydrolysis by Gram negative bacteria (E. cloacae; E. cloacae NCTC 11936) | growth (L. monocytogenes) | growth (E. faecalis)
3′,4′-dihydroxyflavone-4′-β-D-glucopyranoside sodium salt [DHF-glucoside] | −* | −* | −* | −* | −* | −* | −* | −* | −* | −* | −* |  | 
COc1c(C(=O)c2ccccc2)ccc(O[C@@H]2O[C@H](CO)[C@@H](O)[C@H](O)[C@H]2O)c1O [3,4-dihydroxy-2-methoxybenzophenone-4-β-D-glucopyranoside] |  |  |  |  |  |  |  |  |  |  |  | Tr | Tr
